Test results as given in the supplement of paper PMC4967469.
A lower IC50 marks a more sensitive line; a limit (>, <) means that the fit lies beyond the doses tested. For AUC the same curve is integrated over the 256-fold range of doses and scaled to a fraction; the more sensitive the line, the further below 1. For part of these data: The top dose, if marked as inferred, comes from the curve model; the source does not state it. For part of these data: An entry number marks a drug with two screens in the source, which often give different values.

Key:
Experiment in all cases: Viability of human cancer cell lines after 72 h of drug (GDSC screen)
[1] = compound: CC(O)(CS(=O)(=O)c1ccc(F)cc1)C(=O)Nc1ccc(C#N)c(C(F)(F)F)c1 [Bicalutamide]; conditions: top dose inferred
Description: (§1)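 Human cancer cell lines in 384-well plates, medium with 10% serum, drug for 72 h over a 256-fold dose range (nine 2-fold or five 4-fold steps up to the top dose). Adherent lines were fixed and stained with the nucleic acid dye Syto60, suspension lines read with resazurin; signal relative to control wells, capped at 0 and 100%. One two-parameter sigmoid per drug and line, fitted in a mixed model over all curves with the slope shared within a line.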

[2] = compound: Nc1ccn([C@@H]2O[C@H](CO)[C@@H](O)C2(F)F)c(=O)n1 [Gemcitabine]; conditions: top dose 1.024 µM
Description: as §1

[3] = compound: CC(C)c1ccccc1Cc1cc(C(=O)Nc2ccc(S(=O)(=O)c3ccccc3C(C)(C)C)cc2)c(O)c(O)c1O [TW-37]; conditions: top dose 5 µM
Description: as §1

[4] = compound: NC(=O)c1cccc(-c2cc(Nc3ccc(OC(F)(F)F)cc3)ncn2)c1 [GNF-2]; conditions: top dose 1.28 µM; top dose inferred
Description: as §1

[5] = compound: O=S(=O)(c1ccccc1)N(CC(F)(F)F)c1ccc(C(O)(C(F)(F)F)C(F)(F)F)cc1 [T0901317]; conditions: top dose 10.24 µM; top dose inferred
Description: as §1

[6] = compound: C/C(O)=C(\C#N)C(=O)Nc1cc(Br)ccc1Br [LFM-A13]; conditions: top dose 16 µM; top dose inferred
Description: as §1

[7] = compound: Cc1ccc(Nc2cc(-c3cccc(N4C(=O)c5ccccc5C4=O)c3)ncn2)cc1NS(C)(=O)=O [KIN001-270]; conditions: top dose 20 µM; top dose inferred
Description: as §1

[8] = compound: CCNC(=O)c1noc(-c2cc(C(C)C)c(O)cc2O)c1-c1ccc(CN2CCOCC2)cc1 [AUY922]; conditions: top dose 0.256 µM; top dose inferred
Description: as §1

[9] = compound: S=C(NCc1ccc2c(c1)OCO2)N1CCN(c2ncnc3c2oc2ccccc23)CC1 [MP470]; conditions: top dose 20 µM; top dose inferred
Description: as §1

[10] = top dose 1.024 µM, screen: GDSC drug entry 150
[11] = top dose 10 µM, screen: GDSC drug entry 1502

Row | Cell Line | AUC [1, 10] | IC50 [1, 10] [nM] | AUC [1, 11] | IC50 [1, 11] [nM] | AUC [2] | IC50 [2] [nM] | AUC [3] | IC50 [3] [nM] | AUC [4] | IC50 [4] [nM] | AUC [5] | IC50 [5] [µM] | AUC [6] | IC50 [6] [µM] | AUC [7] | IC50 [7] [µM] | AUC [8] | IC50 [8] [nM] | AUC [9] | IC50 [9] [µM]
1 | SK-MEL-2 (melanoma, adherent) | 0.981 | > 1020 | 0.982 | > 10000 | 0.905 | > 1020 | 0.475 | 266 | 0.983 | > 1280 | 0.977 | > 10.2 | 0.97 | > 16 | 0.987 | > 20 | 0.722 | 70.1 | 0.902 | > 20
2 | NCI-H1666 (lung adenocarcinoma, semi-adherent) | 0.964 | > 1020 | 0.937 | > 10000 | 0.977 | > 1020 | 0.537 | 397 | 0.987 | > 1280 | 0.987 | > 10.2 | 0.983 | > 16 | 0.987 | > 20 | 0.977 | > 256 | 0.967 | > 20
3 | Calu-6 (lung adenocarcinoma, adherent) | 0.984 | > 1020 | 0.928 | > 10000 | 0.21 | 7.68 | 0.658 | 918 | 0.982 | > 1280 | 0.977 | > 10.2 | 0.977 | > 16 | 0.97 | > 20 | 0.729 | – | 0.912 | > 20
4 | HCE-4 (oesophagus, adherent) | 0.992 | > 1020 | – | – | 0.096 | 4.01 | 0.584 | 511 | 0.991 | > 1280 | 0.99 | > 10.2 | 0.988 | > 16 | 0.992 | > 20 | 0.517 | 17.7 | 0.975 | > 20
5 | NB7 (neuroblastoma, adherent) | 0.985 | > 1020 | 0.939 | > 10000 | 0.886 | > 1020 | 0.374 | 138 | 0.986 | > 1280 | 0.952 | > 10.2 | 0.957 | > 16 | 0.95 | > 20 | 0.684 | 53.9 | 0.059 | < 0.0781
6 | KU812 (chronic myeloid leukaemia, suspension) | 0.985 | > 1020 | 0.975 | > 10000 | 0.13 | 5.04 | 0.772 | 1770 | 0.988 | > 1280 | 0.874 | 8.46 | 0.87 | 12.7 | 0.923 | > 20 | 0.56 | 22.9 | 0.197 | 0.176
7 | LB996-RCC (kidney, adherent) | 0.982 | > 1020 | 0.965 | > 10000 | 0.457 | 47.9 | 0.443 | 213 | 0.964 | > 1280 | 0.983 | > 10.2 | 0.936 | > 16 | 0.98 | > 20 | 0.567 | 25.1 | 0.899 | > 20
8 | MZ2-MEL (melanoma, adherent) | 0.983 | > 1020 | 0.933 | > 10000 | 0.399 | 32.2 | 0.471 | 256 | 0.967 | > 1280 | 0.983 | > 10.2 | 0.957 | > 16 | 0.963 | > 20 | 0.496 | 15.6 | 0.835 | 16.5
9 | JAR (urogenital system, adherent) | 0.988 | > 1020 | 0.973 | > 10000 | 0.984 | > 1020 | 0.293 | 82.4 | 0.987 | > 1280 | 0.938 | > 10.2 | 0.988 | > 16 | 0.971 | > 20 | 0.958 | > 256 | 0.917 | > 20
10 | IST-MEL1 (melanoma, adherent) | 0.979 | > 1020 | 0.969 | > 10000 | 0.079 | < 4 | 0.502 | 317 | 0.943 | > 1280 | 0.975 | > 10.2 | 0.936 | > 16 | 0.943 | > 20 | 0.386 | 7.29 | 0.97 | > 20
11 | LNCaP-Clone-FGC (prostate, adherent) | 0.975 | > 1020 | 0.882 | > 10000 | 0.83 | 774 | 0.626 | 735 | 0.984 | > 1280 | 0.962 | > 10.2 | 0.947 | > 16 | 0.957 | > 20 | 0.683 | 56.2 | 0.752 | 7.5
12 | TE-10 (oesophagus, adherent) | 0.988 | > 1020 | 0.981 | > 10000 | 0.327 | 21.3 | 0.697 | 1100 | 0.944 | > 1280 | 0.986 | > 10.2 | 0.984 | > 16 | 0.958 | > 20 | 0.542 | 20.8 | 0.98 | > 20
13 | COLO-829 (melanoma, adherent) | 0.972 | > 1020 | – | – | 0.971 | > 1020 | 0.626 | 822 | 0.957 | > 1280 | 0.979 | > 10.2 | 0.957 | > 16 | 0.975 | > 20 | 0.871 | > 256 | 0.935 | > 20
14 | IST-MES1 (mesothelioma, adherent) | 0.987 | > 1020 | – | – | 0.788 | 452 | 0.48 | 275 | 0.987 | > 1280 | 0.986 | > 10.2 | 0.933 | > 16 | 0.972 | > 20 | 0.888 | > 256 | 0.824 | 12.1
